The source of these data is US20260216242A1, “ALPP-SPECIFIC VARIANT ANTIGEN BINDING MOLECULES” (ALMAC DISCOVERY LIMITED, priority 2022, published 2026).

One data set has as its target ALPP (Homo sapiens, UniProt P05187). Nature of the data set: BLI binding kinetics, human ALPP immobilised on AR2G sensors (KD / KD apparent). As to conditions: VHH-hFc, KD apparent format. How it is done: (§1) Binding kinetics were determined using the Biolayer Interferometry (BLI) Octet K2 system (Sartorius). Human ALPP, ALPPL2, ALPL (each fused with a cysteine stabilised leucine zipper) and ALPI, (SEQ ID NO: 265, SEQ ID NO: 266 and SEQ ID NO: 267 and SEQ ID NO: 264 respectively) were immobilised in sodium acetate pH5 buffer to AR2G sensors using amine coupling. All assays were conducted in PBS with a plate temperature of 25° C. Ka (M^−1s^−1), Kd (s^−1) and KD (nM) values were determined using Octet Data Analysis High Throughput software (ForteBio) for Biolayer Interferometry.
(§2) Binding kinetics were determined using the Biolayer Interferometry (BLI) Octet K2 or R4 system (Sartorius). Human ALPP, ALPPL2 and ALPL all fused with a disulphide stabilised leucine zipper (SEQ ID NO: 265, SEQ ID NO: 266, and SEQ ID NO: 267) and ALPI His (SEQ ID NO: 264) were used in BLI experiments. For KD apparent measurements, the ALPP proteins were immobilised in sodium acetate pH5 buffer to AR2G sensors using amine coupling. To measure 1:1 interactions, AHC biosensors were used to immobilise Fc-fused proteins. All assays were conducted in HBS-EP with a plate temperature of 25° C. Ka (M^−1s^−1), Kd (s^−1) and KD (nM) values were determined using Octet Data Analysis High Throughput software (Sartorius) for Biolayer Interferometry.
as §2, with “NO:264)” for “NO: 264)”
On the technique in general: In BLI a coated tip is dipped into the sample, and binding shifts an interference pattern.

Another data set deals with Human ALPPL2 (Homo sapiens, UniProt P10696). Nature of the data set: BLI binding kinetics, human ALPPL2 immobilised on AR2G sensors (KD / KD apparent). As to conditions: VHH-hFc, KD apparent format. On the procedure: as §1, §2
as §2, with “NO:264)” for “NO: 264)”

The next data set addresses T1, hALPI (Homo sapiens, UniProt P09923).
T1 sequence (P09923 with tags, fused parts or gaps): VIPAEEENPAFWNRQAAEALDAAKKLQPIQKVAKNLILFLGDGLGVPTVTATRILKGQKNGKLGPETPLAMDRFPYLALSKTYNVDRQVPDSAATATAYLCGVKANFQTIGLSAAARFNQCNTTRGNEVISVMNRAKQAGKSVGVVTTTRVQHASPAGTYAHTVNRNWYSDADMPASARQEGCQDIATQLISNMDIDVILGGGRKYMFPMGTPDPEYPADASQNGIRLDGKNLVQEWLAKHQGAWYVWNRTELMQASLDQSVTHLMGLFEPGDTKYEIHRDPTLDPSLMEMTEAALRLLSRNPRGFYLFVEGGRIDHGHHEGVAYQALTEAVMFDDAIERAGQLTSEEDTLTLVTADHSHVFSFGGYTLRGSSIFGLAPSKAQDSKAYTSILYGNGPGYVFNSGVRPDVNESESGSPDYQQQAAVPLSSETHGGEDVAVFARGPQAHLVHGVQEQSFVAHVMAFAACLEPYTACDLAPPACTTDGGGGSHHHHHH
Put plainly: BLI binding to ALPI His. To be noted: VHH-hFc. How it is done: as §1, §2
as §2, with “NO:264)” for “NO: 264)”

The target in a further data set is hALPL (Homo sapiens, UniProt P05186). Put plainly: BLI binding to human ALPL. To be noted: VHH-hFc. On the procedure: as §1, §2
as §2, with “NO:264)” for “NO: 264)”

Another data set deals with T2, mouse ALPPL2 (Mus musculus, UniProt P24823).
T2 construct: made in house
Put plainly: BLI cross-species reactivity, mouse ALPPL2. As to conditions: VHH-hFc, KD apparent format. It is filed as binding. How it is done:
as §2
(§3) To assess cross-species reactivity of the ALPP/ALPPL2 targeting VHH-hFc fusions, BLI was conducted using mouse ALPPL2 (NCBI #NP_031459), rhesus monkey ALPP (NCBI #XP_028687061) and cynomolgus monkey ALPP (NCBI #XP_045223825). Each of these were expressed as cysteine-stabilised leucine zipper fusions (SEQ ID NO: 271, SEQ ID NO: 272 and SEQ ID NO: 273). BLI was conducted as described above.

Another data set has as its system rhesus monkey ALPP. Nature of the data set: BLI cross-species reactivity, rhesus monkey ALPP. Format: binding. As to conditions: VHH-hFc, KD apparent format. On the procedure: as §2, §3
Data set [1] in a line: Conjugate characterisation (DAR by SDS-PAGE, HIC, LC-MS). Format: physicochemical. To be noted: VHH-hFc conjugated to MC-vc-PAB-MMAE. How it is done:
Using a partial reduction, refolding and labelling method adapted from the literature [Junutula et al, 2008 Nat Biotech, Jeffrey et al, 2013 Bioconj Chem], these proteins were site specific labelled with the maleimide MMAE derivatives. Briefly, 1-6 mg/ml VHH hFc solutions were prepared in PBS pH 7.4 with 1 mM EDTA, 20-40 molar equivalents TCEP was added and incubated at 4° C. for 16 hours. 30-50 molar equivalents DHAA is then added, pH adjusted to 6.5 and incubated at room temperature for 1 hour. Refolded VHH Fc was extensively dialysed or buffer exchanged into PBS and quantified by UV before reacting with 4-8 molar equivalents maleimide MMAE solution, room temperature for 2 hours. Conjugates were purified by SEC and analysed by reducing and non-reducing SDS-PAGE and LC-MS. Table 15 summaries the conjugates prepared.
A similar partial reduction, refolding and labelling method was used for PNU conjugation as above with some modifications. Briefly, 1-6 mg/ml VHH hFc solutions were prepared in PBS+100 mM L-Arg pH 7.4 with 1 mM EDTA. 20 molar equivalents TCEP added and incubated at 4° C. for 16 hours. […] Refolded VHH Fc was buffer exchanged into PBS using NAP25 columns and quantified by UV. […] Conjugates were purified using activated carbon and NAP-25 desalting columns before being analysed by reducing and non-reducing SDS-PAGE, analytical HIC and LC-MS. […]

The test system of data set [2] is Caov-3 ovarian cancer xenograft model. Put plainly: In vivo efficacy, Caov-3 ovarian cancer CDX, Q4D×4. Also noted: species or system mouse. How it is done: Efficacy studies in the ALPP/ALPPL2+ Caov-3 ovarian cancer xenograft model were performed at Crown Bioscience (Beijing).
For the Caov-3 studies, female NCG mice were inoculated with Caov-3 ovarian adenocarcinoma cells (Peking Union Medical College, Crown ID CL-00780). Each mouse was inoculated at the mammary fat pad with Caov-3 tumor cells (1×10^7) in 0.2 mL of a 1:1 PBS/Matrigel suspension.
Mice (n=3/group) were monitored until the tumour volume reached the recruitment criteria of around 200 mm^3 in a sufficient number of animals. Mice were randomised to treatment groups such that the mean tumour volume for each group was −200 mm^3 and there was no statistical difference between tumour volumes across the groups. The day of randomisation was designated as Day 0 and mice were treated with vehicle or with the biparatopic protein-drug conjugates or with ADC h12F3-MMAE (DAR4) (see Table 35 below) on Day 1. […]
Tumour volume was evaluated by measuring perpendicular tumour diameters, with a calliper, twice a week during the experimental period. Absolute tumour volume (ATV) was calculated using the formula TV (mm^3)=[length (mm)×width (mm)×width (mm)]×0.5, where the length (L) is the longest tumour dimension, and the width (W) is the longest tumour dimension perpendicular to L. All animals were weighed at the same time as tumour size measurement and also on dosing days. […]

T2 sequence (P24823 with tags, fused parts or gaps): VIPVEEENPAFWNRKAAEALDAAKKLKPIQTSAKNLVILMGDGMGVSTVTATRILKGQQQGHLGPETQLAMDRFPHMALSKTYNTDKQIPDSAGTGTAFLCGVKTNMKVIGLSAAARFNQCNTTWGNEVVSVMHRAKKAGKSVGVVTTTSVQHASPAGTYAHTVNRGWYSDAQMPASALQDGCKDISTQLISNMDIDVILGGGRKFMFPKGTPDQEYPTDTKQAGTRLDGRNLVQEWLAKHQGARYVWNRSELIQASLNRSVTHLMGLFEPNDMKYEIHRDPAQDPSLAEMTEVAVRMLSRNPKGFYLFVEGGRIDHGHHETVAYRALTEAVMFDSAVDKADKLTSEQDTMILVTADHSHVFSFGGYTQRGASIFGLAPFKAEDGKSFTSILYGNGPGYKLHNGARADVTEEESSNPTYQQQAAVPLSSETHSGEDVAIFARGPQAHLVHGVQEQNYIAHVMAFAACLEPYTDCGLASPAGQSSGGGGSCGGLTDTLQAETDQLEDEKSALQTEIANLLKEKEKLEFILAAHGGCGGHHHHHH
Human ALPPL2, sequence (P10696 with tags, fused parts or gaps): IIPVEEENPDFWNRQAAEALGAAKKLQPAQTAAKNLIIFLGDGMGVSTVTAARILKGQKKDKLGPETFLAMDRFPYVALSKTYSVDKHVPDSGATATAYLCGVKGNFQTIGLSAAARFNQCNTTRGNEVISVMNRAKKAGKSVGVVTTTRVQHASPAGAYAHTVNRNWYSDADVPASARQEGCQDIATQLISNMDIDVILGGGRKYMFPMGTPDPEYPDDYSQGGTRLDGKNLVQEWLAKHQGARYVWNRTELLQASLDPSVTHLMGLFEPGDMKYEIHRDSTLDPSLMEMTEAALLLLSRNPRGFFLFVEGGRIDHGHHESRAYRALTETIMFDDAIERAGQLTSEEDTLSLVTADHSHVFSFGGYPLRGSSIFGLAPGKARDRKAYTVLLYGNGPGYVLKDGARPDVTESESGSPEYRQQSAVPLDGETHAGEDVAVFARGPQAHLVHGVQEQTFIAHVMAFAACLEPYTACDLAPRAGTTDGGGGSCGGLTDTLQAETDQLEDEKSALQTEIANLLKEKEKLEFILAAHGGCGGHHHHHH
UniProt P05187, sequence (P05187 with tags, fused parts or gaps): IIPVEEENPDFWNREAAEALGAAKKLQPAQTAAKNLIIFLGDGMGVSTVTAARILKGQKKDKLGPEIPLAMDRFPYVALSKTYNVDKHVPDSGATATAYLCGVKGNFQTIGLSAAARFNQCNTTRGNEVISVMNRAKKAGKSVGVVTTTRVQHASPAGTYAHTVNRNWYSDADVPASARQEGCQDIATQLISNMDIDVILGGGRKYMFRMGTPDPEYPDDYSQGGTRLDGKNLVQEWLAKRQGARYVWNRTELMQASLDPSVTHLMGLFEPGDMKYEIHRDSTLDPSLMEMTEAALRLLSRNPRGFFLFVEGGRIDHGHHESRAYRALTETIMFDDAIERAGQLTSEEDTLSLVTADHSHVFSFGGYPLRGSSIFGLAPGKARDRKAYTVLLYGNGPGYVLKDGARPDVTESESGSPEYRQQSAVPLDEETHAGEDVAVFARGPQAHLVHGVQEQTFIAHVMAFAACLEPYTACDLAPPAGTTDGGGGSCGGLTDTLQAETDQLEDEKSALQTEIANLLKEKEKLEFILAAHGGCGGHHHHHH
hALPL, sequence (P05186 with tags, fused parts or gaps): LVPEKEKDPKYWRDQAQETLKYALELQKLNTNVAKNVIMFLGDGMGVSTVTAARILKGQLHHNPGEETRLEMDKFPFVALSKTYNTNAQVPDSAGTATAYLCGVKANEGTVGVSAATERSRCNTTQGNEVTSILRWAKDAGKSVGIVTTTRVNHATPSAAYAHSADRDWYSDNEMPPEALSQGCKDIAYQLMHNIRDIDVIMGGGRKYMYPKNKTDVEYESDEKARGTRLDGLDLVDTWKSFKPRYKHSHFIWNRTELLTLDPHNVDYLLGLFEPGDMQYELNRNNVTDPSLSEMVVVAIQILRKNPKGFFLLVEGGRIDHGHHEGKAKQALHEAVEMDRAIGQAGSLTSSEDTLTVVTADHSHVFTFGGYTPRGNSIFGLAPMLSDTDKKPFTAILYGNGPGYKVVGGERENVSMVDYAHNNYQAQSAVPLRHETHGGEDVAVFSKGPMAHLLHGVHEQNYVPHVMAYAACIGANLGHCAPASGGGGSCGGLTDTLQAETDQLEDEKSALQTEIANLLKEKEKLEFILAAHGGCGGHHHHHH

B1: A05-hFc (S239C) (protein)
chain: QVQLVESGGGLVQAGASLTLSCAASGFTFNTRSIVWFRQAPGKEREAVSCISKVAGSTYYGDSVQGRFSSSTDNAKNTVSLQMNSLKPEDTAVYTCAASFAPNCYGWSVAANMEYWGEGTMVTVSSGGGGSGGGGSGGGGS[human IgG1 Fc with changes not spelt out]
As to B1, in the data set with ALPP, the “hALPP Ka” value was determined as 304000 M⁻¹ s⁻¹ and the “hALPP Kd” value was below 1e-07 s⁻¹. Further, in the data set with Human ALPPL2, the “hALPPL2 Ka” value was 526000 M⁻¹ s⁻¹ and the “hALPPL2 Kd” value was below 1e-07 s⁻¹. In the data set with hALPI, the hALPI entry is given as “No binding”. Moreover, in the data set with hALPL, the hALPL result is “No binding”. Moreover, in the data set with mouse ALPPL2, the “mALPPL2 Ka” value was 462000 M⁻¹ s⁻¹ and the “mALPPL2 Kd” value was 0.00104 s⁻¹. In the data set on rhesus monkey ALPP, the “rmALPP Ka” value turned out to be 562000 M⁻¹ s⁻¹ and the “rmALPP Kd” value was below 1e-07 s⁻¹. Besides, the “DAR (by MS)” value in data set [1] was found to be 1.87.

B2: PDC5: DAR2 biparatopic VHH-hFc-MMAE protein-drug conjugate of Example 12 (Tables 33-35) (conjugate)
chain 1: QVQLVESGGGLVQPGGSLRLSCAASGSIFSVNTMGWYRQAPGKQRDLVAVATSGGTIHYADSVKGRFTISRDNAKNTVYLQMNSLKPEDTAVYYCNLVVPYGMIAGDHDYWGQGTKVTVSSGGGGSGGGGSGGGGS[human IgG1 Fc with C220S S239C T366Y (EU numbers) not spelt out]
chain 2: QVQLVESGGGLVQAGGSLRLSCAASGRAFGDYNIGWFRQAPGKEREFVARRTWDGSSTRYDDSVKGRFTVSIDNAKNTAYLQMNSLKTEDTAVYYCAAGRYSRVRGWEYDYWGQGTQVTVSSGGGGSGGGGSGGGGS[human IgG1 Fc with C220S S239C Y407T (EU numbers) not spelt out]
Take B2: the “anti-tumour efficacy on a mol of MMAE payload/kg basis versus ADC h12F3-MMAE (PDC6)” value in data set [2] is “stronger anti-tumour response”.
